For 67 compounds, inhibition results are on record in PubChem BioAssay AID434955 (Southern Research Specialized Biocontainment Screening …, 2010).

Molecules are shown by their SMILES. Some of the results follow. These are further read-outs of the screen, such as a control signal, another cell line or another target. No call is given for them. The list favours compounds with an active or inconclusive main result.

The test in a line: beta-lactam sensitization of Mtb H37Rv, H37Rv (AID 434955).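 Further: growth measured after seven days incubation then overnight dye step; 0% = bacteria only wells and 100% = bacteria with antibiotic.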 The settings on record: M. tuberculosis H37Rv growth with meropenem, percent inhibition; measured here: primary screen without meropenem; at 25 µM.
As a reminder, the inhibition is the relative decrease from the control value, in per cent. As to `COc1cc(/C=C/C(=O)OCC(=O)Nc2cc(C)c(C)cc2[N+](=O)[O-])ccc1O`, the inhibition is -5.92%.

With `CN(C)CCCN(C(=O)c1ccc2c(c1)CCCC2)c1nc2c(F)cccc2s1`, the inhibition was -3.67%.

Turning to `Cc1cc([N+](=O)[O-])c(-c2ccc(/C=N/n3cnnc3)o2)cc1Cl`, the inhibition is -5.54%.

As for `Cc1ccc(S(=O)(=O)N2CCCCC2C(=O)N(C)c2ccccc2)cc1` (configuration not stated), the inhibition was -9.98%.

As for `Cc1cc(C(=O)COC(=O)CN=C2NS(=O)(=O)c3ccccc32)c(C)n1CCc1ccc(Cl)cc1`, the inhibition came to 3.26%.

`O=C(CCc1nnc2ccc(N3CCC4(CC3)OCCO4)nn12)NCc1ccc(F)cc1`: the inhibition is -1.98%.

Take `c1ccc2c(c1)CC1CNCc3cccc(c31)S2` (configuration not stated): the inhibition came to 12.9%.

Regarding `CCNc1nc(CN2CCCCC2)nc2scc(-c3ccccc3)c12`, the inhibition was 40.7%.

As for `Cc1cc(C)n2c(SCC#N)nnc2n1`, the inhibition was -7.74%.

Turning to `COCCNC(=O)/C(C#N)=C/c1c(N2CCCCCC2)nc2ccccn2c1=O`, the inhibition is 5.57%.

Consider `O=c1oc(-c2ccccc2F)nc2scc(-c3ccccc3)c12`, for which the inhibition was found to be 7.37%.

Consider `CC(=O)Nc1ccc(S(=O)(=O)NC2(C(F)(F)F)NC(=O)N(c3ccc(C)cc3)C2=O)cc1` (configuration not stated), for which the inhibition is 14.4%.

On to `O=C(/C=C/c1ccccc1)NC(=S)Nc1ccccc1O`, for which the inhibition was found to be 73.8%.

Take `Cc1ccc(SCc2[nH]nc3c2C(c2ccc(C)o2)C(C#N)=C(N)O3)cc1` (configuration not stated): the inhibition turned out to be 2%.

Consider `Cc1cccc(C)c1OCc1cc(C(=O)N2CCN(c3ccccc3)CC2C)no1` (configuration not stated), for which the inhibition was 61.7%.

Turning to `CCOc1ccccc1NC(=S)NC(=O)C1CC1`, the inhibition was 96.8%.

Regarding `Cc1cc2ccccc2n1CCNC(=O)COc1ccccc1`, the inhibition was 35%.

`CC1CCc2nn(CC(=O)NCCN3CCCCC3C)cc2C1` (configuration not stated): the inhibition is -4.68%.

For `CN1CCN(CC(=O)Nc2c(C(=O)C3CC3)oc3ccccc23)CC1`, the inhibition is -1.34%.

As to `FC(F)(F)c1ccccc1/C=N/n1c(COc2ccccc2)n[nH]c1=S`, the inhibition was -0.82%.

With `CCCCCC1CC(CC#CCN2CCOCC2)C(=O)O1` (configuration not stated), the inhibition was -2.08%.

For `CC(C)(C)NC(=O)CSc1nc(-c2ccccc2)c(-c2ccccc2)[nH]1`, the inhibition was found to be 1.55%.

For the compound `CCc1ccc(/C=N/n2c(C3CCCCC3)n[nH]c2=S)cc1`, the inhibition turned out to be 11.4%.

For `O=c1c2ccccc2c(-c2ccccc2)nn1-c1ccccc1`, the inhibition amounted to 35.6%.

With `O=S(=O)(Nc1cccc(-n2cnnn2)c1)c1cnc(Cl)c(Cl)c1`, the inhibition was -8.25%.

With `O=C(COC(=O)CCSc1ccc(Cl)cc1)NCc1ccccc1`, the inhibition was 3.86%.

With `Cc1ccc(S(=O)(=O)NNC(=O)NC23CC4CC(CC(C4)C2)C3)cc1`, the inhibition was 3.15%.

Consider `Cc1cc(OCc2cc(C(=O)N(C)C3CCOCC3)no2)cc(C)c1Cl`, for which the inhibition came out at 3.27%.

Turning to `CCCn1c(=O)c(C(=O)NNC(=O)c2ccccc2[N+](=O)[O-])c(O)c2ccccc21`, the inhibition came to 3.66%.

For `CC(C)N1CCc2c(sc(NC(=O)c3ccc(S(=O)(=O)N(C)CC4CCCO4)cc3)c2C(N)=O)C1` (configuration not stated), the inhibition was -0.72%.

For `Cn1c2ccccc2c(=O)c2cc(C#CC3(O)CCCCC3)ccc21`, the inhibition came to 31.1%.

In the case of `CCCCn1c(CCCNC(=O)c2ccco2)nc2ccccc21`, the inhibition is -1.82%.

Take `Cc1ccc(C2=NN3C(=O)c4ccccc4C3C2)cc1` (configuration not stated): the inhibition is 44.9%.

For the compound `CCOC(=O)C1(Cc2cccc(Cl)c2)CCCN(C(=O)c2cc(C(C)C)nn2C)C1` (configuration not stated), the inhibition was -0.27%.

On to `C=C(C)C(=O)OC1(C(F)(F)F)Oc2cc(C)ccc2NC1=O` (configuration not stated), for which the inhibition is -1.95%.

Turning to `CCCCNC(=O)c1sc2nc(C)cc(COC)c2c1-n1cccc1`, the inhibition is -9.19%.

Take `CCCCC(NC(=O)Cc1c(C)c2cc3c4c(oc3cc2oc1=O)CCCC4)C(=O)O` (configuration not stated): the inhibition is -1.31%.

As to `CCC(=O)NC(=S)Nc1ccc(NC(=O)c2cccc([N+](=O)[O-])c2C)cc1`, the inhibition is -13.5%.

Turning to `COc1cccc(NC(=S)Nc2cc(C)cc(C)n2)c1`, the inhibition is -5.07%.

As for `O=C(COC(=O)C1CC(=O)N(c2ccccc2)C1)c1ccccc1` (configuration not stated), the inhibition was -1.52%.

For `O=C(CCCn1c(=O)[nH]c2cc(Cl)ccc2c1=O)NC1CCCCCC1`, the inhibition amounted to 4.06%.

Turning to `COc1ccc(C(=O)/C=C/c2ccc(O)cc2)c(O)c1CC=C(C)C`, the inhibition was 30.6%.

With `O=C(COc1ccc([N+](=O)[O-])cc1)N(Cc1ccccc1)Cc1ccccc1`, the inhibition was determined as 11.4%.

Turning to `CCOC(=O)n1ccc(C(=O)Nc2ccccc2F)n1`, the inhibition is -2.77%.

Consider `COc1ccc(N2CC(C(=O)Nc3nnc(SCc4cccnc4)s3)CC2=O)cc1` (configuration not stated), for which the inhibition was -0.63%.

In the case of `COc1ccccc1N(C)S(=O)(=O)c1ccc(C(=O)OCC(=O)N2CCCCCC2)cc1`, the inhibition amounted to 6.94%.

As for `COc1ccc2nc(-c3ccccc3)cc(OC)c2c1`, the inhibition turned out to be 76.9%.

Turning to `Cc1cccc(Nc2c([N+](=O)[O-])c(=O)n(C)c3ccccc23)c1`, the inhibition amounted to 1.36%.

Consider `Cc1cc(OCc2cc(C(=O)NCc3csc(C(C)C)n3)no2)cc(C)c1Cl`, for which the inhibition worked out at 29.4%.

With `COc1ccc(C(=O)NC2CC2)cc1OC1CCN(Cc2cc(C)cc(C)c2)CC1`, the inhibition came to 3.71%.

As for `CCN1CCN(CCCNC(=O)CN2C(=O)c3cccnc3Oc3ccc(Cl)cc32)CC1`, the inhibition was -5.6%.

As to `CC(=O)Nc1ccc(SCC(=O)c2cc(C)n(CC(F)(F)F)c2C)cc1`, the inhibition came to 26.1%.

For the compound `CC1(c2ccc([N+](=O)[O-])cc2)NC(=O)N(CC(=O)c2ccc3c(c2)OCO3)C1=O` (configuration not stated), the inhibition was -4.31%.

For the compound `O=C1c2ccccc2C(=O)c2c(Nc3ccc(CCO)cc3)ccc(O)c21`, the inhibition worked out at 47.5%.

Consider `COc1ccc(CN2CCNC(=O)C2CC(=O)N(C)Cc2ccon2)c(F)c1` (configuration not stated), for which the inhibition is 1.35%.

Take `Cc1nn(-c2ccccc2)c(C)c1C(=O)OCC(=O)N1CC(=O)Nc2ccccc21`: the inhibition is -3.98%.

In the case of `CCc1c(C)c2ccc(OCC(=O)OC(C)C)c(C)c2oc1=O`, the inhibition was 91.2%.

As to `COc1cc(OC)cc(-c2cc3nc(C)c(CCC(=O)NC(C)CCc4ccco4)c(C)n3n2)c1` (configuration not stated), the inhibition is 91.6%.

Regarding `Cc1oc2cc3oc(=O)cc(C)c3cc2c1C`, the inhibition is -2.99%.

As for `O=C(N=C1SC2CS(=O)(=O)CC2N1CCc1ccc(F)cc1)C1CCCCC1` (configuration not stated), the inhibition worked out at 3.1%.

In the case of `Cc1ccc(C)c(-n2c(-c3csc(C)c3)n[nH]c2=S)c1`, the inhibition is -2.89%.

Consider `COc1ccccc1N1CCN(C(=O)C2CCCN(S(=O)(=O)c3ccc4c(c3)oc(=O)n4C)C2)CC1` (configuration not stated), for which the inhibition turned out to be 3.84%.

`Cc1cc2c(cc1S(=O)(=O)NCC(C)c1ccccc1)n(C)c(=O)c(=O)n2C` (configuration not stated): the inhibition is -2.26%.

Turning to `CCc1ccc2nc(/N=C(\N)NC(=O)c3ccccc3)nc(C)c2c1`, the inhibition is -3.63%.

Turning to `O=C(Oc1c(-c2ccccc2)c(=O)n2c3c(cccc13)CC2)c1ccc(F)cc1`, the inhibition turned out to be 11%.

Take `NNC(=O)c1oc2nc(-c3ccco3)cc(-c3ccco3)c2c1N`: the inhibition was found to be 24.4%.

In the case of `COc1ccccc1CN1CC(C(=O)NCc2cc(C)on2)CCC1=O` (configuration not stated), the inhibition was found to be 1.14%.
